1 compound from patent US4935362A, “BMY-28121, a new antitumor antibiotic” (Bristol-Myers Company, priority 1987, dated 1990) can be followed below.

Converted amounts (≈) assume the structure as drawn.

The experiment deals with Proteus vulgaris A9436. It counts as cell-based. To be noted: nutrient agar, 10^4 CFU/ml.

In turn, `CC1(C)S[C@@H]2[C@H](NC(=O)[C@H](N)c3ccccc3)C(=O)N2[C@H]1C(=O)O` [Ampicillin, reference compound] returned an MIC of 0.4 µg/mL (≈ 1.14 µM).
